{
  "source": "the supplement of paper PMC4723716",
  "note": "± gives the uncertainty stated by the source. Whole data set: some 9,900 compounds, median “viability index relative to DMSO control” near 1, cut for the lowest 2% near 0.85. The list shows a part of the results.",
  "data": [
    {"system": "Plasmodium falciparum NF54 stage V gametocytes", "assay": "viability index relative to DMSO control (fraction); higher = less gametocyte killing", "settings": "2.5 µM, library set: Broad Institute DOS, incubation time: 72 h", "in_short": "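Stage V gametocytes of P. falciparum NF54 were held in serum-free screening medium at 0.75% gametocytemia and 1.25% hematocrit, 10 µl per well of a 1,536-well plate, and exposed to compound at 2.5 µM for 72 hr at 37°C under low oxygen. A 3 µl mix of 2.5 µM MitoTracker Red CMXRos with 0.13% saponin was then added for one to two hours, after which one field per well was imaged and red particles of 20–70 µm2 were counted. The viability index equals this count divided by the plate mean from wells given solvent alone.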", "values": [
      {"smiles": "C[C@@H]1CN([C@@H](C)CO)C(=O)c2ccccc2-c2ccccc2CO[C@H]1CN(C)Cc1ccccc1C(F)(F)F", "viability index": "0.883 ± 0.044"},
      {"smiles": "COc1ccc(C#Cc2cccc(-c3nc(C(=O)N4CCN(Cc5ccccc5)CC4)cc4c3[C@H](CCO)N(S(=O)C(C)(C)C)C4)c2)cc1OC", "note": "(some centres undefined)", "viability index": "1.04 ± 0.11"},
      {"smiles": "COc1ccc(S(=O)(=O)N(C)C[C@H]2OCCCC[C@@H](C)Oc3ccc(NC(=O)Cc4ccccc4)cc3C(=O)N([C@@H](C)CO)C[C@H]2C)cc1", "viability index": "0.773 ± 0.061"},
      {"smiles": "C[C@H]1CN([C@@H](C)CO)C(=O)c2cc(NC(=O)C3CCCCC3)ccc2O[C@@H]1CN(C)Cc1ccc2c(c1)OCO2", "viability index": "1.01 ± 0.036"},
      {"smiles": "C[C@H](NC(=O)C[C@@H]1CC[C@H]2[C@@H](COC[C@@H](O)CN2Cc2ccc(C(F)(F)F)cc2)O1)c1ccccc1", "viability index": "1.017 ± 0.0018"},
      {"smiles": "COc1ccc2c3c([C@H](CO)N(C[C@]33CN(Cc4ccccc4OC)C3)C(=O)C3CC3)n(C)c2c1", "viability index": "0.9565 ± 0.0033"},
      {"smiles": "COc1ccc(S(=O)(=O)Nc2ccc3c(c2)C(=O)N([C@H](C)CO)C[C@@H](C)[C@H](CN(C)C(=O)Nc2c(C)noc2C)OCCCC[C@@H](C)O3)cc1", "viability index": "1.05 ± 0.011"},
      {"smiles": "COc1ccccc1-c1ccc([C@H]2[C@@H](CO)N(C(C)=O)[C@H]2CN(C)C(C)=O)cc1", "viability index": "1.03 ± 0.028"},
      {"smiles": "N#C[C@@H]1[C@H](c2ccccc2-c2cccc(F)c2)[C@H](CO)N1C(=O)c1cccnc1", "viability index": "1.05 ± 0.12"},
      {"smiles": "CCS(=O)(=O)N1CC2(C1)[C@@H](c1ccccc1)[C@H](CO)N2Cc1ccc(F)cc1", "viability index": "1.11 ± 0.024"},
      {"smiles": "C/C=C/c1ccc([C@@H]2[C@@H]3CN(C(=O)Nc4ccccc4F)C[C@H]2N3)cc1", "viability index": "1.15 ± 0.024"},
      {"smiles": "O=C(C[C@H]1C=C[C@@H](NC(=O)Cc2ccccn2)[C@@H](CO)O1)NCCc1ccncc1", "viability index": "1.14 ± 0.016"},
      {"smiles": "OC[C@@H]1[C@@H](c2ccc(C#CC3(O)CCCC3)cc2)[C@H]2CN(Cc3cncnc3)CCCCN12", "viability index": "1.02 ± 0.046"},
      {"smiles": "COCC(=O)N1[C@H](CO)[C@H](c2ccc(C#CCC3CCCC3)cc2)[C@@H]1C#N", "viability index": "0.971 ± 0.046"},
      {"smiles": "CO[C@@H](CN(C)C(=O)c1ccc2c(c1)OCO2)[C@@H](C)CN([C@H](C)CO)S(=O)(=O)c1ccc(Cl)cc1", "viability index": "1.11 ± 0.016"},
      {"smiles": "C/C=C/c1cnc2c(c1)C(=O)N([C@@H](C)CO)C[C@@H](C)[C@@H](CN(C)C(=O)Nc1cccc(OC)c1)O2", "viability index": "1.06 ± 0.016"},
      {"smiles": "N#C[C@H]1N[C@H](CO)[C@H]1c1ccc(C2=CCCC2)cc1", "viability index": "1.25 ± 0.072"},
      {"smiles": "N#C[C@@H]1[C@@H](c2ccccc2-c2cccc(F)c2)[C@@H](CO)N1C(=O)CN1CCOCC1", "viability index": "1.2 ± 0.06"},
      {"smiles": "CN(C)Cc1cn(CC[C@H]2CC[C@@H](NC(=O)Cc3cccnc3)[C@H](CO)O2)nn1", "viability index": "0.979 ± 0.021"},
      {"smiles": "C[C@@H]1CN([C@@H](C)CO)C(=O)c2ccccc2-c2ccccc2CO[C@@H]1CN(C)C(=O)c1cc(Cl)cc(Cl)c1", "viability index": "1.02 ± 0.0065"},
      {"smiles": "Cc1cc(C(=O)Nc2cccc3c2O[C@@H](CN(C)C)[C@H](C)CN([C@H](C)CO)C3=O)n(C)n1", "viability index": "0.9615 ± 0.0061"},
      {"smiles": "Cc1ccccc1-c1ccc([C@H]2[C@H]3CN(S(=O)(=O)Cc4ccccc4)CCCCN3[C@H]2CO)cc1", "viability index": "0.894 ± 0.069"},
      {"smiles": "CCCN1C[C@H](C)[C@H](OC)CN(C)C(=O)c2ccc(NS(=O)(=O)c3cn(C)cn3)cc2OC[C@@H]1C", "viability index": "1.02 ± 0.064"},
      {"smiles": "COCC(=O)N1C[C@]2(CCN(Cc3ccccc3)CC2)c2c([nH]c3cc(OC)ccc23)[C@H]1CO", "viability index": "1.024 ± 0.0051"},
      {"smiles": "O=C1N[C@@H](Cc2ccccc2)COCc2cnnn2CC[C@@H]1Cc1ccc(-c2ccccc2)cc1", "viability index": "1.06 ± 0.025"},
      {"smiles": "CN1C(=O)c2cc(NC(=O)c3ccc(C(F)(F)F)cc3)ccc2OC[C@@H]2O[C@H](CC(=O)NCc3ccc4c(c3)OCO4)CC[C@H]21", "viability index": "1.16 ± 0.027"},
      {"smiles": "C[C@@H](O)C#Cc1ccc([C@@H]2[C@H](CO)N3CCCCN(CC4CC4)C[C@@H]23)cc1", "viability index": "1.01 ± 0.03"},
      {"smiles": "CO[C@H]1CN(C)C(=O)c2cc(NC(C)=O)ccc2OC[C@H](C)N(Cc2ccncc2)C[C@@H]1C", "viability index": "0.937 ± 0.066"},
      {"smiles": "COCC(=O)Nc1ccc2c(c1)[C@H]1C[C@@H](CC(=O)N3CCOCC3)O[C@@H](CO)[C@H]1O2", "viability index": "1.13 ± 0.083"},
      {"smiles": "COc1ccccc1CN1[C@@H](CO)[C@@H]2c3ccccc3N(C(=O)c3cccnc3)C[C@@H]21", "viability index": "1.07 ± 0.011"},
      {"smiles": "CO[C@@H]1CN(C)C(=O)c2cc(NC(=O)c3cnccn3)ccc2OC[C@@H](C)NC[C@@H]1C", "viability index": "1.0046 ± 0.0004"},
      {"smiles": "CCCNC(=O)N1C[C@@H](C)[C@H](OC)CN(C)C(=O)c2ccc(NC(=O)CC)cc2OC[C@H]1C", "viability index": "1.09 ± 0.047"},
      {"smiles": "CO[C@H]1CN(C)C(=O)c2ccc(NS(C)(=O)=O)cc2OC[C@H](C)N(C(=O)CN(C)C)C[C@H]1C", "viability index": "0.958 ± 0.02"},
      {"smiles": "C[C@@H]1CN([C@@H](C)CO)C(=O)c2cc(NC(=O)Nc3ccc4c(c3)OCO4)ccc2O[C@@H](C)CCCCO[C@@H]1CN(C)S(=O)(=O)c1ccccc1", "viability index": "1.03 ± 0.046"},
      {"smiles": "CCS(=O)(=O)NCC[C@@H]1CC[C@@H](NS(=O)(=O)c2ccccc2C)[C@@H](CO)O1", "viability index": "1.02 ± 0.049"},
      {"smiles": "CN1CCN(C(=O)[C@H]2[C@H](CO)[C@H]3Cn4c(ccc(-c5ccncc5)c4=O)[C@H]3N2CC2CC2)CC1", "viability index": "0.999 ± 0.12"},
      {"smiles": "CN1CCN(C(=O)C[C@H]2CC[C@@H]3[C@@H](COc4ccc(NC(=O)c5cccs5)cc4C(=O)N3C)O2)CC1", "viability index": "0.986 ± 0.047"},
      {"smiles": "C[C@@H]1CN([C@H](C)CO)C(=O)c2c(c3ccccc3n2C)-c2ccccc2CO[C@@H]1CN(C)S(=O)(=O)c1ccccc1C#N", "viability index": "1.03 ± 0.014"},
      {"smiles": "C[C@H]1C/C=C/C[C@H](c2cccc(Cl)c2)NC(=O)[C@H](Cc2ccccc2)N(C)C(=O)c2ccccc2O1.C[C@H]1C/C=C\\C[C@H](c2cccc(Cl)c2)NC(=O)[C@H](Cc2ccccc2)N(C)C(=O)c2ccccc2O1", "viability index": "0.894 ± 0.1"},
      {"smiles": "COc1ccc(NC(=O)N2CC(=O)N3[C@H](C2)[C@@H](c2ccc(Br)cc2)[C@@H]3CO)cc1", "viability index": "0.973 ± 0.025"},
      {"smiles": "CN(C)C(=O)c1ccc(-c2ccc([C@@H]3[C@@H]4CN(C(=O)Nc5ccc(Cl)cc5)C[C@H]3N4)cc2)cc1", "viability index": "0.967 ± 0.09"},
      {"smiles": "CCC(=O)N1[C@H](CO)[C@H]2c3ccccc3N(C(=O)c3cnccn3)C[C@H]21", "viability index": "1.02 ± 0.11"},
      {"smiles": "Cc1nn(C)cc1NC(=O)C[C@H]1CC[C@@H]2[C@@H](COc3ccc(NC(=O)c4cccc(F)c4)cc3C(=O)N2C)O1", "viability index": "1.13 ± 0.14"},
      {"smiles": "C[C@@H]1CN([C@H](C)CO)C(=O)Cc2cc(NC(=O)CCC(F)(F)F)ccc2O[C@@H]1CN(C)CC1CC1", "viability index": "1.1 ± 0.097"}
    ]}
  ]
}
